{"source": "patent US7642367B2", "about": "“Diamino-functional chalcones” (Lica Pharmaceuticals A/S, priority 2002, dated 2010)", "test_system": "S. aureus ATCC29213", "test": "Killing curve (time-kill) / broth macrodilution MIC", "type": "cell-based, Staphylococcus aureus"}
{"smiles": "COc1ccc(C(=O)/C=C/c2cc(-c3ccccc3OC)ccc2N2CCCN(C)CC2)c(F)c1", "note": "[B143, (E)-1-(2-Fluoro-4-methoxy-phenyl)-3-[2′-methoxy-4-(4-methyl-[1,4]diazepan-1-yl)-biphenyl-3-yl]-propenone]", "values": [{"measurement": "dependence of the bactericidal action", "result": "primarily-dependent on the concentration of the test compound"}]}
